# Data taken from PubChem BioAssay AID1030 (National Center for Advancing Translational Sciences (NCATS), 2008).
# Hit rate of the full screen: of about 220,000 compounds, about 16,000 (7.3%) were called active. Inconclusive means that the source gave no clear call. Such entries were picked first, then a sample of the others. Calls follow the shape of the dose curve; as a rule, active = well fitted inhibition curve with a large enough effect (not every such curve was filed as active); inconclusive = small, poorly fitted or top-dose-only effect, or another doubt; inactive = no such curve, though single readings can be large or run the other way. Potencies of inconclusive entries are left out as doubtful fits.
# Target: Aldehyde dehydrogenase 1A1 (Homo sapiens) (UniProt P00352)
# Sequence of UniProt P00352 (P00352 whole entry, looked up): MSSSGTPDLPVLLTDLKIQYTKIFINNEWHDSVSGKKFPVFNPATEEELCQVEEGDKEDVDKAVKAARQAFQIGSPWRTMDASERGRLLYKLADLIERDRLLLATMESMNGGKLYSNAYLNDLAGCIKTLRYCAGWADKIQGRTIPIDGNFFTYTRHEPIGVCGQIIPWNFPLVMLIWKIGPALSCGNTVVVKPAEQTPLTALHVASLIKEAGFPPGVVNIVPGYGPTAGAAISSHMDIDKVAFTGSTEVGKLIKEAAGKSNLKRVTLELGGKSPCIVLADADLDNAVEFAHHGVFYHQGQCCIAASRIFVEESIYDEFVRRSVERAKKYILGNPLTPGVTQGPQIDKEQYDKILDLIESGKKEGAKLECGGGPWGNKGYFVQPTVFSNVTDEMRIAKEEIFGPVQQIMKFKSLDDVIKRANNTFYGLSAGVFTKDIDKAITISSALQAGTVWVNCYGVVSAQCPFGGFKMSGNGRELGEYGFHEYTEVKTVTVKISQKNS
# Assay: qHTS Assay for Inhibitors of Aldehyde Dehydrogenase 1 (ALDH1A1);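 as to activity, negative = inhibition: plate controls were no enzyme wells and a reference inhibitor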
# Settings: Purified ALDH1A1, NADH fluorescence, propionaldehyde substrate; series mostly up to 75.3 µM; activity, negative = inhibition: at the top concentration
# Potency is read from the fitted curve at half-maximal effect; tags tell the direction and shape of the fitted curve.
SMILES,Potency,"activity, negative = inhibition"
NC(=O)c1ccccc1NC(=O)/C=C/c1ccc(Cl)cc1,"inconclusive [inhibitor, single point]",–
CCN=c1scc(-c2ccc(F)cc2)n1/N=C/c1ccccn1,"inconclusive [inhibitor, partial curve]",–
CCCCCCCN1N=C(C)C(C(=O)c2ccccc2)C1=O (stereo not drawn),–,inactive: -3.59%
Cc1ccc(C(=C2C3C=CC2C2C(=O)NC(=O)C32)c2ccc(C)cc2)cc1 (stereo not drawn),active: 0.891 µM,–
CCNc1nc(NCC)nc(N/N=C/c2ccc(O)c(O)c2)n1,–,inactive: -0.107%
COc1ccc(OC)c(S(=O)(=O)N2CCC(C(=O)NCCc3ccccc3)CC2)c1,active: 5.01 µM,–
Cc1ccc(C2C3=C(CC(C)(C)CC3=O)Nc3n[nH]c(C)c32)cc1 (stereo not drawn),"inconclusive [inhibitor, single point]",–
CCCCCN1CSC(=S)N(Cc2ccccc2)C1,"inconclusive [inhibitor, single point]",–
Cn1c(=O)n(C)c2cc(/C=N/NC(=O)c3ccc(Cl)cc3Cl)ccc21,"inconclusive [inhibitor, single point]",–
CC(C)(C)C(=O)c1cn(CC(=O)NCc2ccc3c(c2)OCO3)c2ccccc12,"inconclusive [inhibitor, partial curve]",–
CCn1cnc2sc(C(=O)Oc3cccc(C)c3)c(C)c2c1=O,"inconclusive [inhibitor, partial curve]",–
O=C1O/C(=C/Br)CCC1c1cccc2ccccc12 (stereo not drawn),active: 0.501 µM,–
COc1ccc(CNC(=O)/C=C/c2ccco2)cc1OC,active: 3.55 µM,–
COc1ccc(CCNC(=O)C(=O)NCCOc2ccccc2)cc1OC,active: 3.98 µM,–
CCOc1cc(/C=C(\C#N)c2[nH]nc(N)c2C#N)ccc1O,"inconclusive [inhibitor, single point]",–
COc1cccc(NC(=O)Nc2ccc3c(c2)nnn3C)c1,"inconclusive [inhibitor, single point]",–
O=C(c1ccco1)N(CCO)Cc1cc2cc3c(cc2[nH]c1=O)OCO3,"inconclusive [inhibitor, partial curve]",–
O=C1C(=Cc2cccn2-c2ccccc2)C(=O)c2ccccc21,"inconclusive [inhibitor, full curve]",–
COc1cc(C(=O)N[C@H](C(=O)Nc2nnc(C3CC3)s2)C(C)C)cc(OC)c1OC,"inconclusive [inhibitor, single point]",–
COc1cc2nc(N3CCN(C(=O)[C@@H]4COc5ccccc5O4)CC3)nc(N)c2cc1OC,"inconclusive [inhibitor, single point]",–
CCCCC(=O)Nc1nc2c(OC)cc([N+](=O)[O-])cc2s1,"inconclusive [inhibitor, full curve]",–
Cc1nc(-c2noc(-c3ccc(Cl)cc3)n2)c(C(F)(F)F)o1,–,inactive: 16.4%
CC(C)(C)c1csc(NC(=O)c2cccs2)n1,"inconclusive [inhibitor, single point]",–
COc1ccc2oc(=O)c(/C(C)=N/Nc3nc(-c4cc(C)ccc4C)cs3)cc2c1,"inconclusive [inhibitor, single point]",–
CN1CCN(c2ncc3nc(-c4cc(F)cc(F)c4)c(=O)n(CCc4ccccc4)c3n2)CC1,"inconclusive [inhibitor, partial curve]",–

SMILES,Potency,"activity, negative = inhibition"
COc1ccc(N2C(=O)CC(Sc3ncccc3C(=O)O)C2=O)cc1 (stereo not drawn),"inconclusive [inhibitor, single point]",–
CCN(CC(=O)Nc1ccc2c(c1)OCCO2)Cc1cc(=O)oc2cc(C)c(C)cc12,active: 10 µM,–
O=C(Nc1cc(Sc2ccccn2)cc([N+](=O)[O-])c1)c1ccc([N+](=O)[O-])cc1,–,inactive: -9.42%
COC(=O)Nc1ccc(S(=O)(=O)N2CCCc3cccc(O)c32)cc1,"inconclusive [inhibitor, single point]",–
COc1cccc(CN(C)C(=S)Nc2cccc(C)c2)c1,–,inactive: -1.16%
COc1ccc(N=C(N)SCc2ccccn2)cc1,"inconclusive [inhibitor, single point]",–
CCOc1ccc(OCCCCNCCN)cc1,"inconclusive [inhibitor, single point]",–
CC(=O)OCC(=O)[C@@]12OC3(CCCC3)OC1CC1C3CCC4=CC(=O)C=C[C@@]4(C)[C@]3(F)C(O)C[C@]12C (stereo partly drawn),–,inactive: -3.41%
Cc1nc2ccc(S(=O)(=O)NC(C(=O)N3CCC(C)CC3)C(C)C)cc2s1 (stereo not drawn),–,inactive: 6.09%
N#CC(C#N)=Cc1cn(-c2ncc(C(F)(F)F)cc2Cl)c2ccccc12,"inconclusive [inhibitor, full curve]",–
Cc1ccccc1CNC(=O)c1ccc(Cl)c([N+](=O)[O-])c1,"inconclusive [inhibitor, partial curve, poor fit]",–
CCOC(=O)c1sc2nc(N3CCOCC3)c3c(c2c1N)CCN(Cc1ccccc1)C3,"inconclusive [inhibitor, partial curve]",–
Cc1ccc(C)c(OCc2nc3ccc(S(=O)(=O)Nc4c(C)n(C)n(-c5ccccc5)c4=O)cc3[nH]2)c1,–,inactive: 1.58%
O=C1NN(c2ccc(F)cc2)C(=O)/C1=C\c1cnn(-c2ccccc2)c1,"inconclusive [inhibitor, partial curve]",–
OC(CNCC1(N2CCCCC2)CCCCC1)COc1ccc(Cl)cc1Cl (stereo not drawn),"inconclusive [inhibitor, single point]",–
CC1=C/C(=N\OS(=O)(=O)c2ccccc2)C(C)=CC1=O,"inconclusive [inhibitor, partial curve]",–
COC(=O)N1CCC[C@@]2(CCN(Cc3nccs3)C2)C1,–,inactive: 7.84%
COc1ccc(NC(=O)CSc2c3c(nc4cc(Cl)ccc24)CCCC3)cc1OC,"inconclusive [inhibitor, single point]",–
COc1cc(/C=N/NC(=O)c2ccc(CN3c4cccc5cccc(c45)S3(=O)=O)cc2)cc(OC)c1O,"inconclusive [inhibitor, partial curve]",–
CC1CC(Nc2cccc(O)c2)=CC(=O)O1 (stereo not drawn),–,inactive: -0.632%
O=C(NCCCO)/C(=C\c1ccco1)NC(=O)c1ccc(Br)o1,"inconclusive [inhibitor, partial curve]",–
S=C(NCCc1ccccc1)N1CCn2cccc2C1c1ccncc1 (stereo not drawn),"inconclusive [inhibitor, single point]",–
O=C(NCCCNCc1ccccc1)c1ccncc1,active: 2 µM,–
CCOc1ccc(N(CC(=O)Nc2cccc(N(C)S(C)(=O)=O)c2)S(=O)(=O)c2ccccc2)cc1,–,inactive: -5.81%
CCOC(=O)N/N=C/c1ccc(N2CCOCC2)s1,"inconclusive [inhibitor, single point]",–

SMILES,Potency,"activity, negative = inhibition"
Cc1cccc2sc(N(CCCN(C)C)C(=O)c3cc4ccccc4oc3=O)nc12,"inconclusive [inhibitor, single point]",–
COC(=O)c1[nH]c2ccc(Cl)cc2c1NC(=O)CCN1CCN(C2CCCCC2)CC1,"inconclusive [inhibitor, single point]",–
CC1CCN(C(=O)CSCC(=O)O)CC1,"inconclusive [inhibitor, single point]",–
O=C(Nc1nc2ccccc2s1)C1CCCO1 (stereo not drawn),–,inactive: -6.78%
CCNc1ncc2nc(-c3ccc(Cl)cc3)c(=O)n(Cc3ccc(F)cc3)c2n1,"inconclusive [inhibitor, single point]",–
Cc1cc(/C(N)=N/OC(=O)Nc2cccc(C(F)(F)F)c2)no1,"inconclusive [inhibitor, full curve]",–
O=C(O)c1ccc(/C=N/NC(=O)c2cc(-c3cccs3)nc3ccccc23)cc1,"inconclusive [inhibitor, single point]",–
COCCN(CC(=O)NCC1CCCO1)C(=O)CCC(=O)Nc1ccccn1 (stereo not drawn),–,inactive: 5.72%
Cc1cc(=O)oc2cc(OCc3ccc(C(=O)OCC(=O)Nc4ccccc4OC(F)F)cc3)ccc12,"inconclusive [inhibitor, partial curve]",–
COCc1cc(C)nc(N2CCc3ccccc32)c1C#N,"inconclusive [inhibitor, single point]",–
CCCC(=O)OCC(=O)NCc1ccc(Cl)cc1,–,inactive: 4.63%
CCOc1ccc(OCc2ccc(C(=O)NCC3CCCO3)o2)cc1 (stereo not drawn),–,inactive: -11.8%
COc1ccc(C2CC(=O)N(C)c3ccccc3S2)cc1 (stereo not drawn),–,inactive: 1.17%
O=C(O)C1CC=CCC1C(=O)Nc1cccc(Cl)c1 (stereo not drawn),active: 17.8 µM,–
Cc1cccc(NCCNc2cccc(C)c2)c1,–,inactive: -4.21%
CCOC(=O)c1sc(N=NC2=C(O)CCCC2=O)c(C(=O)OCC)c1C,"inconclusive [inhibitor, single point]",–
NC(=O)CC(O)c1cccc(Cl)c1 (stereo not drawn),–,inactive: 9.49%
CN(C)C(=O)c1ccc(-c2ccc3ncnc(NCc4cccnc4)c3c2)cc1,"inconclusive [inhibitor, partial curve]",–
COCCCNC(=S)Nc1ccc(CC(=O)O)cc1,"inconclusive [inhibitor, single point]",–
CCCCCCn1c(COc2ccccc2F)nnc1SCC(=O)N1c2ccccc2NC(=O)C1(C)C,"inconclusive [inhibitor, single point]",–
COc1ccc(Cl)cc1NC(=S)Nc1cccnc1,–,inactive: -1.05%
COCCNc1ncnc2ccc(-c3cccc(OC)c3)cc12,"inconclusive [inhibitor, partial curve]",–
COc1cccc(/C=C/C(=O)c2cccc([N+](=O)[O-])c2)c1OC,"inconclusive [inhibitor, single point]",–
